Assay results published in EP3470429A1 (Numab Innovation AG, dated 2019).
Where “and” joins values, the source holds several entries; their conditions need not be identical. Identical values can stand only once. Like-named read-outs stand apart in the source and are kept apart here.

What was measured:
Experiment in all cases: cell-based or functional assay
[1] = biological target: T1, CD137 on the transgenic NFkB Jurkat reporter cell line (UniProt Q07011 24-255, limits assumed)
[2] = biological target: T1, CD137 on the transgenic NFkB Jurkat …; remark: listed apart in the source
[3] = biological target: T1, CD137 on the transgenic NFkB Jurkat …; remark: listed apart in the source
[4] = biological target: T1, CD137 on the transgenic NFkB Jurkat …; remark: listed apart in the source
[5] = biological target: T1, CD137 on the transgenic NFkB Jurkat …; remark: listed apart in the source
[6] = biological target: T1, CD137 on the transgenic NFkB Jurkat …; remark: listed apart in the source
[7] = biological target: T1, CD137 on the transgenic NFkB Jurkat …; remark: listed apart in the source

EC50 in ng/ml, NFkB-Luciferase reporter, PD-L1 expressing CHO cells (6h) [1]: 7.84 ng/mL | EC50 in ng/ml, NFkB-Luciferase reporter, PD-L1 expressing CHO cells (6h), + HSA [1]: 7.92 ng/mL | EC50 in ng/ml, NFkB-Luciferase reporter, CHO-PD-L1 cells [2]: 5.13 ng/mL and 4.86 ng/mL and 6.3 ng/mL | EC50 in ng/ml, NFkB-Luciferase reporter, HCC827 cells without IFNg [3]: 11.5 ng/mL and 13.1 ng/mL and 13 ng/mL | EC50 in ng/ml, NFkB-Luciferase reporter, HCC827 cells stimulated with IFNg [4]: 9.27 ng/mL and 8.88 ng/mL and 9.23 ng/mL | EC50 in ng/ml, NFkB-Luciferase reporter, HCC827 with IFNy stimulation [5]: 7.51 ng/mL | EC50 in ng/ml, NFkB-Luciferase reporter, HCC827 without IFNy stimulation [5]: 9.52 ng/mL | EC50 in ng/ml, NFkB-Luciferase reporter, CHO-PD-L1 cells [6]: 11.7 ng/mL | EC50 in ng/ml, NFkB-Luciferase reporter, PD-L1 expressing CHO cells (24h) [7]: 13.8 ng/mL | EC50 in ng/ml, NFkB-Luciferase reporter, PD-L1 expressing CHO cells (24h), + HSA [7]: 14.8 ng/mL
B1: PRO885 (bispecific antibody)
chain: DIQMTQSPSSLSASVGDRVTITCQASQSINDYLAWYQQKPGKAPKLLIYKASTLASGVPSRFSGSGSGTDFTLTISSLQPEDFATYYCQQGYIITDIDNVFGTGTKVTVLGGGGGSQVQLQESGPGLVKPSETLSLTCKVSGFSFSNSYWICWIRQPPGKGLEWIGCTFVGSSDSTYYANWAKGRVTISVDSSKNQFSLKLSSVTAADTAVYYCARHPSDAVYGYANNLWGQGTLVTVSSGGGGSGGGGSGGGGSGGGGSIQMTQSPSSLSASVGDRVTITCQASQSINNVLAWYQQKPGKAPKLLIYRASTLASGVPSRFSGSGSGTDFTLTISSLQPEDFATYYCQSSYGNYGDFGTGTKVTVLGGGGGSQVQLQESGPGLVKPSETLSLTCKVSGFSFSSGYDMCWIRQPPGKGLEWIGCVVAGSVDITYYASWAKGRVTISVDSSKNQFSLKLSSVTAADTAVYYCARKDAYSDAFNLWGQGTLVTVSS
